One compound from PubChem BioAssay (NCI) can be followed below.

For the assay, the system named is NCI-H322M lung. Description: NCI-60 cell line screen, 48 h.

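Method: 48-hour compound exposure of cells in 96-well plates, five concentrations, linear interpolation of endpoints. GI50: concentration for 50% inhibition of growth. Definition used: TGI = concentration required for complete inhibition of growth.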

With `Brc1ccc(-c2n(Cc3ccc4ccccc4c3)c(-c3ccccc3)c(-c3ccccc3)[n+]2Cc2ccc3ccccc3c2)cc1`, the GI50 was 377 nM and the TGI was found to be 1420 nM.
